# Results from PubChem BioAssay (NCATS).
# Inconclusive results, whose numbers are uncertain, are shown with a selection of clear calls. For some assays here: Potencies of inconclusive entries are left out as doubtful fits. The source made the active and inactive calls. Unless noted, calls follow the shape of the dose curve; as a rule, active = well fitted curve in the direction sought with a large enough effect in the repeat runs; inconclusive = weak or mixed curves; inactive = no such curve, though single readings can be large; an effect the other way counts as inactive or inconclusive.
# What was measured:
# [1] = target: Cytochrome P450 2D6 (Homo sapiens) (UniProt P10635); assay: Cytochrome P450 family 2 subfamily D member 6 (CYP2D6) small molecule antagonists: luciferase biochemical (cell-free) qHTS assay (AID 1645840); also: nearly all actives have a fitted effect of over 55% in size; also: potency is read from the fitted curve at half-maximal effect; as to activity change, negative = inhibition: % is scaled to controls: 0 for no effect and ±100 for the full control effect
# Sequence of UniProt P10635 (P10635 whole entry, looked up): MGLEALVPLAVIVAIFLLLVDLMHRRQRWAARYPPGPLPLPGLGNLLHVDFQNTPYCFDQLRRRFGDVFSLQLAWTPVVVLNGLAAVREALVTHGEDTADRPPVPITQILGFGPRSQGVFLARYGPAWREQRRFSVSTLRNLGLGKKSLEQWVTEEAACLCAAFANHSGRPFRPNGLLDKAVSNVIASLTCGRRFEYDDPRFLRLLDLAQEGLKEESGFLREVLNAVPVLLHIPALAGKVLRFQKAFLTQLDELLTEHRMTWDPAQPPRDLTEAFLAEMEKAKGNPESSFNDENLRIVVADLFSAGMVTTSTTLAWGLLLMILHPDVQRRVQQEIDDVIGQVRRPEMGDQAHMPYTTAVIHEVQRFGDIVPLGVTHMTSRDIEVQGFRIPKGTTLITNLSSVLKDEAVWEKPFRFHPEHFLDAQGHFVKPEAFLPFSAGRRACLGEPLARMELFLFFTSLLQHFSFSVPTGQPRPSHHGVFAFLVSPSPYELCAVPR
# In short: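 P450-Glo luminescent screen: recombinant CYP2D6 enzyme–proluciferin substrate mix preincubated with compound 10 min at room temperature, then NADPH regeneration added for 1 h at room temperature. Detection reagent added for 20 min; luciferin light read as relative luminescence units.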
# [2] = qHTS Assay for Identification of Small Molecule Agonists for Hypoxia Response Element Signaling Pathway (AID 914; active = well fitted activation curve with a large enough effect in the signal ratio, with a control signal flat, not every such curve was filed as active; inconclusive = small, poorly fitted or top-dose-only effect, or effect the other way, or a change in a side signal; the % refers to the signal ratio; also: potency is read from the fitted curve at half-maximal effect; as to activation: top concentration of the series differs between compounds; % of control where 0% means no effect); settings: ME-180 (cervical carcinoma) HRE-bla reporter, beta-lactamase ratio, CoCl2, 17 h; activation: hits give high values
# In short: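 Compounds in a titration series were added to ME-180 reporter cells alongside an EC50 level of CoCl2. After 17 hours, beta-lactamase activity was read as the 460nm/530nm emission ratio of CCF4, giving AC50 values.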
# [3] = qHTS Assay for Lipid Storage Modulators (AID 1519; calls by dose curve; also: potency is read from the fitted curve at half-maximal effect; as to activity change, negative = inhibition: % is scaled to controls: 0 for no effect and ±100 for the full control effect); settings: Drosophila S3 cells, BODIPY lipid droplet/cell ratio, laser cytometry, cells loaded with oleic acid; activity change, negative = inhibition: at 57.5 µM (top of the series) unless noted
# In short: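 Cells seeded at 5,000 per well were treated with compounds over a concentration series and loaded with oleic acid (400 uM, as added). Lipid droplet fluorescence (488 nm excitation, 500-530 nm channel) was read by laser-scanning cytometry and normalized to 20 uM Triacsin C.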
# [4] = qHTS Assay for Identification of Small Molecule Antagonists for NFkB Signaling Pathway (AID 895; active = well fitted inhibition curve with a large enough effect in the signal ratio, with a control signal flat, not every such curve was filed as active; inconclusive = small, poorly fitted or top-dose-only effect, or effect the other way, or a change in a side signal; the % refers to the signal ratio; also: % is scaled to controls: 0 for no effect and ±100 for the full control effect); settings: NFkB beta-lactamase reporter cells, FRET ratio 460/530, stimulated with 10 pM TNF alpha; activity change, negative = inhibition: at 38.3 µM (top of the series)
# In short: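 Beta-lactamase reporter read-out (460 and 530 nm emission ratio, 405 nm excitation, 2 hrs substrate loading RT) after 5 hr stimulation with 10 pM TNF alpha in compound-treated NFkB-bla ME-180 cells in low-serum medium.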
# [5] = qHTS Assay for Identification of Small Molecule Antagonists for Thrombopoietin (TPO) Signaling Pathway (AID 918; active = well fitted curve in the direction sought with a large enough effect; inconclusive = small, poorly fitted or top-dose-only effect, or another doubt; inactive = no such curve, though single readings can be large; an effect the other way counts as inactive or inconclusive; also: nearly all actives have a fitted effect of over 60% in size); settings: TPO-dependent cell signaling reporter, antagonist mode; activity change, negative = inhibition: at 38.5 µM (top of the series)
# In short: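 First, Ba/F3 reporter cells expressing human TPO receptor were held overnight without IL-3. Next, compound and 26 pM TPO were added. After 24 hrs incubation at 37 C, luciferase luminescence under the Glycoprotein IIb promoter was recorded.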
# [6] = target: Muscarinic acetylcholine receptor M1 (Rattus norvegicus) (UniProt P08482); assay: qHTS Assay for Antagonists of Acetylcholine Muscarinic M1 Receptor: Measurement of IP-One Response (AID 944; active = well fitted curve in the direction sought with a large enough effect; inconclusive = small, poorly fitted or top-dose-only effect, or another doubt; inactive = no such curve, though single readings can be large; an effect the other way counts as inactive or inconclusive; also: nearly all actives have a fitted effect of over 75% in size)
# Sequence of UniProt P08482 (P08482 whole entry, looked up): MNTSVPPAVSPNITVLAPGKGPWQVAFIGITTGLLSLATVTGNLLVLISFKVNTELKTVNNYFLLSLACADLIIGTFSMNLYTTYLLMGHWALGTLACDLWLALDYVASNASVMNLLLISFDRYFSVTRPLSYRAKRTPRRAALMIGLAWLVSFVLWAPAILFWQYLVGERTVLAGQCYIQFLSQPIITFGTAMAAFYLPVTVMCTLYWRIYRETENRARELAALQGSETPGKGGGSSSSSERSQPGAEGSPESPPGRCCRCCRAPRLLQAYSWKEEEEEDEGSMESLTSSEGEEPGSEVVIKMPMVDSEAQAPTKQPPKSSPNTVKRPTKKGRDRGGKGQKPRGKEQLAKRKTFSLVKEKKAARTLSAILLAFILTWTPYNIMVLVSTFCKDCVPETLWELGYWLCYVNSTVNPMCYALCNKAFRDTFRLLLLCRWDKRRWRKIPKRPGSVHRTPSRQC
# [7] = Confirmation and Secondary Assay for Modulators of Hemoglobin Beta Chain Splicing at IVS2 705 locus (AID 930; active = well fitted curve in the direction sought with a large enough effect; inconclusive = small, poorly fitted or top-dose-only effect, or another doubt; inactive = no such curve, though single readings can be large; an effect the other way counts as inactive or inconclusive;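 also: HeLa cells stably expressing the EGFP-705 splicing reporter; GFP fluorescence per well restored by corrected splicing of the IVS2-705 intron in EGFP; % of control where 0% means no effect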)
# In short: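 Assay measures total GFP intensity per well in HeLa EGFP-705 cells after 2 days with compound; mis-splicing normally truncates EGFP, so fluorescence indicates corrected splicing.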
# Tags tell the direction and shape of the fitted curve or compound fluorescence and quenching.
smiles,measurement,setting,value
Cc1nc2c3ccccc3nc(NNC(=O)CCC(=O)N3CCN(c4cccc(Cl)c4)CC3)n2n1,Potency,[1],"inconclusive [inhibitor, single point]"
CCOC(C(=O)N(C)CCN(C)CCc1ccccc1)(c1ccccc1)c1ccccc1,Potency,[1],"inconclusive [inhibitor, single point]"
O=C(c1cccc(F)c1)N1CCC2(CC1)CN(c1ccc(-c3ccccc3)cc1)C2,Potency,[2],"inconclusive [inhibitor, single point]"
same,Potency,[3],"inconclusive [cytotoxic, single point]"
CC1=C(C(=O)Nc2cccc(-c3nn[nH]n3)c2)C(c2ccccc2Cl)N=C(Nc2nc3ccccc3o2)N1 (configuration not stated),Potency,[1],"inconclusive [inhibitor, single point]"
CCOc1ccc(NC(=O)Cn2cc(C(=O)c3ccco3)c3ccccc32)cc1,Potency,[1],"inconclusive [inhibitor, full curve, poor fit]"
COc1ccc(Oc2ncc3nc(-c4ccc(Cl)cc4)c(=O)n(C[C@H]4CCCO4)c3n2)cc1,Potency,[2],"inconclusive [inhibitor, single point]"
same,Potency,[3],active: 28.2 µM
COc1ccc(NC(=O)N2CC[C@@]3(CCCN(C(=O)c4ccco4)C3)C2)cc1,Potency,[2],"inconclusive [inhibitor, single point]"
same,Potency,[3],inactive
O=c1[nH]c2ccc(S(=O)(=O)Nc3cc(Cl)ccc3O)cc2o1,Potency,[1],"inconclusive [inhibitor, single point]"
COc1cc2c(cc1OC)-c1cc3ccc(OC)c(OC)c3c[n+]1CC2,Potency,[2],"inconclusive [inhibitor, single point]"
same,"activity change, negative = inhibition",[3],inconclusive: 12.4%
Cc1ccccc1C(=O)Nc1cccc(-c2nc3cccnc3s2)c1,Potency,[1],"inconclusive [inhibitor, partial curve, poor fit]"
COc1ccc(C(C)=O)cc1CSc1nc(NCc2ccccc2)c2ccccc2n1,Potency,[1],"inconclusive [inhibitor, partial curve, poor fit]"
COC1=CC(=O)CC(C)C12Oc1c(Cl)c(OC)cc(OC)c1C2=O (configuration not stated),Potency,[2],"inconclusive [inhibitor, full curve]"
same,Potency,[3],"inconclusive [rising, single point]"
COc1ccccc1NC(=O)CSc1oc(-c2cccs2)nc1S(=O)(=O)c1ccc(Br)cc1,Potency,[1],"inconclusive [inhibitor, full curve]"
COc1cc(=O)n(C)c2c(OC[C@@H](O)C(C)(C)O)cccc12,"activity change, negative = inhibition",[4],inconclusive: 31.8%
same,"activity change, negative = inhibition",[5],inconclusive: -15.7% [phenotype inactive]
same,Potency,[6],inactive
same,Potency,[3],inactive
Cc1cccc(NC(=O)Cn2c(=O)n(Cc3ccc(C(=O)NCc4ccc5c(c4)OCO5)cc3)c(=O)c3ccccc32)c1,Potency,[1],"inconclusive [inhibitor, full curve, poor fit]"
C=C1C[C@@]23C[C@@]1(O)CCC2[C@@]12C=CC(O)[C@](C)(C(=O)O1)C2C3C(=O)O (some centres not stated),Potency,[7],inactive
same,Potency,[3],inactive
COc1cccc(CNCc2cccn2-c2nnc(N3CCN(c4ccccc4)CC3)s2)c1,Potency,[1],active: 3.38 µM
COc1cccc(C(=O)NC(c2ccc(Cl)cc2)c2cc(Cl)c3cccnc3c2O)c1 (configuration not stated),Potency,[1],inactive
COc1ccccc1CNc1ncncc1-c1ccccc1CN(C)C,activation,[2],inactive: -9.29%
same,Potency,[3],inactive
Oc1c(C(Nc2ccccn2)c2ccccc2F)ccc2cccnc12 (configuration not stated),Potency,[1],"inconclusive [inhibitor, single point]"
Clc1cccc(-n2ncc3c(NCCCn4ccnc4)ncnc32)c1,Potency,[1],active: 2.13 µM
CC(=O)C1=C(c2ccc(Cl)c(Cl)c2)N(C(C)=O)n2cnnc2S1,Potency,[1],"inconclusive [inhibitor, single point]"
